# Data published in the supplement of paper PMC10681739.
# The full ranking holds about 2,700 sequences; the median of “arbitrary fluorescence units” is about 4,100, and the highest 2% start at about 54,000. The list shows a part of the results.
# Target: T1, ETS1 (UniProt P14921)
# T1 sequence: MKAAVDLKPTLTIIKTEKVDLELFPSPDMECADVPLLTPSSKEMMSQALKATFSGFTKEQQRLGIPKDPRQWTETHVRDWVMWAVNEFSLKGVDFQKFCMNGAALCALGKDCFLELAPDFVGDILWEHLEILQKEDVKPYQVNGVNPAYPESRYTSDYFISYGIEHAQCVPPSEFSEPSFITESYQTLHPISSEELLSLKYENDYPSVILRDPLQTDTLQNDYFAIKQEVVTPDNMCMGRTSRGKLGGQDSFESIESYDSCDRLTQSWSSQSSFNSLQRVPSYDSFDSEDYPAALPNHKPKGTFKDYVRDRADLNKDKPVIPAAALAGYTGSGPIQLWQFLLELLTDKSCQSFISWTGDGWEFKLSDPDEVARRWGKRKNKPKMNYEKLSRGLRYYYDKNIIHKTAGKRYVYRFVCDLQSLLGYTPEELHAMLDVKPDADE
# Test: ETS1 binding intensity (PBM fluorescence) (arbitrary fluorescence units); higher = stronger binding
# Settings: ETS1 concentration 10 nM
# Description: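 gcPBM on wild-type 36-bp genomic probes with two neighbouring ETS1 sites (4-24 bp apart). Recombinant human ETS1 (10 nM) was detected with anti-ETS1 antibody fluorescence. Values are medians over 3 replicate spots. The probes sit in constant array flanks that are not printed.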
row,Sequence,ETS1 binding intensity
1,ACAGAGGAAATCTAAGTCCGTTTGACAGGAAGCTCA,589
2,TGGATGAGGAAGCCACTAGGGTCTCAGGAAGTCCCC,185
3,AGATAAAGAAGTTTCCTCACATCCGGGGCTGCCTTT,6930
4,TTACCCGGAACTACTTAGCCCAGGGTTTCCTGAGTG,480
5,CTGATCTTTCTATTTCCTGTTTCCTGCCTAAGACTA,20100
6,TCCACTTCCTAGTCCGCCAATTATCATTTCCGGTGA,16500
7,AAATTTCAAGGAAACATTACCTATTTCCTATATAAT,227
8,ATGGGCCAATGGGAAGTGACACGGAAGTACGGATTG,517
9,CGCATGGCATCCTGGAGCCGGCACAGGAAGTGGTTA,4530
10,CTCTAGGTCTAACATCCCTCGGAAGTTCGTGCAGCG,175
11,GCCGGCGAGCGGAAGAGGCTGCAGGAAGGCCGGCCC,3170
12,AGCGCGCGCCCGCGGAAGGCGGAAGTGGGCGGTGCC,2620
13,ACCCACTTCCTGCAGCACCCACACACTTCCTGGGGC,31700
14,GAAGTGGAGGAAATGTTTGAACACGGATGTGGGGTC,423
15,CAGCGCCCGGACTTCCTCCCTTTCCGCTGCGCGAGG,5240
16,AGCACAGAGGAAGCTGCGGGGTCCGGAAGAAAAAAA,525
17,TTCCGAGAGGAAACGTTCCCTACGCTTCCCGGAGAG,393
18,CCGCGGGGGAGGAAATAAGAGCCGGAAGACACAAAA,1920
19,AGGGCACTGAAAGGAAGGGGTTCCGGGCTGGGGAGG,604
20,TTTCTTCCGGCCCGGCAAGGCGAGAGGAGGAAGCGG,24300
21,GAGCGACGGAAGCAGCCGCTCTTAGTTTCCGGCAAC,3420
22,CGCCCGGATCACACCGCCGACCTCGGGCTTCCTGAG,173
23,TCCACCGCCCGCTTCCTGTTTATCCGCACTGCGCTT,22500
24,GGGTATGTGGTTTCCTCACACTTCCTGAGTTTATGT,2900
25,TAACAGGAAGCATGACTAGGAGCCCTCAGGAAACTT,1510

row,Sequence,ETS1 binding intensity
1,CTCGCTGGGCCGGAAGGGACCGGGAAATTCCAAGCC,3470
2,TAGTTTCCTGCCTTAAAGAGCCTTTACAGGAAATTG,25200
3,CCAGGGAGCACTTCCTATTGCAGGAAGAACAATTCC,7660
4,AAACCAGGAAGACCTACTAGGAGGACGGAAGTCGAA,538
5,GGGCGGGACTTCCGGCAAGGCGCGGAAGCGGCGGTA,46400
6,GTCAGCAGGATGCAGGTGCTACACAGGAAGGTGTCT,982
7,GGCCGCCCCTGCGGATGTGAGGAAATCAGTAGCGTG,1410
8,CACGCCTATAATCCAGCTATTCAGGAAGCGGAAGCA,423
9,CATTTCACAGGAAATAATCTAAGGGATGTGTGTGTG,2450
10,TGAGAAACCACATCCTGCTCAGGAAGCCAAGCACCC,16000
11,CGAGCCGGAATCGAACCAGCGACCTAAGGATGTCCG,331
12,GCCCCGGCCCCACGGATACTTCCGCGCCTGTCAGAC,1010
13,CAAGCCACAGGAAACCTCCAGCAGGAAGTCGGGCTG,1970
14,TAGAATGTATCCTGTCCTGAGTCATTTCCCTCTTTG,7380
15,ACTACCTTTCGGGGATGTGGTTTCCGCCCTTCTTCT,2000
16,GAGGTGCCGCAGGATGTAACGGGATGTGCACTATGC,1170
17,CACCTCCTTCCTGGACTCCCCTCTCTTCCTGCCCAG,4840
18,CACAGGATGGGGGCATGGCATTTGGGCAGGAAATGC,835
19,GTCCCCTTCCTAATGACTCTGAGGCAGGATATGACA,642
20,GCCAATTTTCCACTTCCGCTTCCGGCGCTGCGGCAG,35200
21,GCTCTCATTTCCTGCTTTATAAAAGGAAGTGAAGCC,28900
22,ACCCAGTCATTTCCTGTTGCACTTCCTTGTTTATTT,22100
23,AATGAATAAAAAAGGAAACAGGAAGCAGTCCTGGGT,2150
24,CACCAACTGACATTTCCCCATCCTGTTTTTGGAGGG,856
25,GGGGCAGTCTCCCTTCCGGCTTCCGGGACCGAAGGG,16200

row,Sequence,ETS1 binding intensity
1,GATTTATGAATTTCCTGTGGGCTTCCTGGCAGCCAT,13500
2,CTCCTGGGAAATGTAGTTCATAGGGTTTCCGCCTTG,232
3,CGCGCTCCGTTTCCTAGGAGCCGGGAAATGGTCGCC,468
4,TTTACCGGAAGTCGGAGGGGTCAGACGGAAGCAGAA,28400
5,GGCCTCAGGAAGCCTCCAATCATGGCGGAAGGCAAG,203
6,GTTTTCTTGTTTCCGCTGCTATTTCCTGCTTGGGTT,18900
7,ACACGCCGAGCAGGATGAAGAGGAAGTTGCCCAGGC,384
8,CGCGGCGCTTCCGCGCCAGTTGGAGTTCCGGGTGGG,3570
9,CACCACGTTTTTCCGCAGTAACCGGATGACTCCTAC,753
10,ATTTTTTCCTGAACACTCTGAAATATCAGGAAGTAT,343
11,TTACATCCTGTCCTGCACACACCCATACATCCTGTT,48700
12,TCAACATCCTGCTTCTCAGGGCACCACAGGAAATGT,36600
13,GGCTGCCACAGGAAGTACGTCACGGAAGAGGGTGGG,9870
14,CTCGTAAGGGAAGTAGAGTTTGTTTTCCGGTAAGCC,1320
15,CCACCCACCACATCCTGTCTCCGGAATCTAGAAGTC,27000
16,TTCATGGCAGGAAACAGAAGTACTTCCTGTGGGAGA,11500
17,CTTTGACCCCGGAAAAGAGATCTTCCGGGTTCCTCT,2670
18,CAGCCTCCTTCCGGCCTGGCTCTCCTTCCGCCCGCC,27500
19,CAACATATTCATCCTGGGAGGCAGGAAGGTGATTTC,244
20,GGGCGGGAGCGGAAGCTGCGCGCGGAAGCGCCGAGT,4280
21,GAGTACGTCACTTCCGCAACGCTTCCTTCGCGGGGC,20800
22,GCACAGCCAGCTTCCTTTTTAAGGATATGACATCAA,3840
23,GCTCTAGTTGGGGAAATGAAACATCCGTATAAGCAA,466
24,AGCACTTCCTCAATTTCTGGCTCTACAGGATATTTC,16100
25,GCACCCAGCCGGTTTCCTTTTCCTGTGCACACTCTC,3810

row,Sequence,ETS1 binding intensity
1,ACTCAGGAAACGGAGAGAAGCCACCACAGGAAACGG,1530
2,CGACGCACCGGAAGTTTTGAAATATCCTGTGGGCTT,28900
3,CAAGAACCGGAAGCCATGGCCTGACTTCCGGCACCG,28100
4,TCCGCTTCCTGGAATATTAGCCAGGCAGGATACGCC,8620
5,CAGCAATTTCCTAATTGAATCTCCATTTCCTGTGTT,6960
6,AAAAAGGATGTGGGTCTGTGGGAGGGCTTCCTGGAA,700
7,CGGCCTCTTCCGCGAGCCCGCGCGCCGGAAGTGGAA,5440
8,GGTAAACAGGAAAAGGTGAAACGAGGAAACAAAGTG,1710
9,TTTAGACTTCCTCACAGGCAGTACGGGAAATAAACA,3420
10,TTTGCTTCCGTGGCCAAAGGCGCTTCATTTCCGGGT,4660
11,TAGAGGTTTCCGCTCAGAGCAACCAGGAAGGTGGAA,9960
12,TCTTTTGTGGCTTCCTGTAGCAGGATATAGGTTTCC,13300
13,TTATCAGGAAATGAAGGCTCAGGGAGGGGAAGTGAG,1270
14,TGGCACAGCCCCGGAACTCGCTTCCTGCCTCTCCCG,5850
15,GCGCGCCCACGCGCTTCCTTCCGCCCTCCGCGCCGG,2690
16,AGGAGCCTTCCTGTCATGGTGGGCAGGAAGACATTT,8350
17,TAACCGGAAATACGCACGGTTTCACCCGGAAGTGCC,14200
18,CTCACTTCCTCTTGGCCCCATCACCACTTCCCCAAA,23500
19,TGAGTATCGGAAACATCTACTACAGGATGTTTACCA,466
20,AAGGCAGGATGTGTGTAATAACACATTTCCTTGGTC,5050
21,TGGGTGGGGGCGGAACTTGGCGGAAGTGCGCGCTAC,2260
22,GGAGCGGAAGGGCTGTGTGTCAAAAGAAGGAAGCCA,676
23,GCCGTTTGCATTTCCTGAAACCGGATCTTAGTGTCA,8220
24,ACCAAGAGAGGAAGTAACACTCAGGAAGTGGTCAAC,4920
25,GGCCATGAGAAAGGAAGCTGAGGAAGTAGGAGGGAA,343

row,Sequence,ETS1 binding intensity
1,GCTGCCGGAGCATCCGGTGGCAGGAAGCCCAGTCCA,37300
2,CACAGCACATTCAGGAAACAGGAAGTAGTCTGATAG,7680
3,ACTCTCTCAAGAGGAAGCACATCCTGCCATGGGAAC,8960
4,TGAACTTTTAGGAAACACCCACTTCCTGTGAGCTTT,10100
5,CGACCATGGGCCCTTCCGCAGGAAGAGGGCAGCGCC,617
6,AGCTCTTCCTGCCTGCCATTCAATCCAGGAAATGCG,16000
7,CGTAACGGAAGGCTCGCACTCTTGTCTTCCGGTCGC,2230
8,CGGGAGGAAGTGACGCTCCCAGCCAGCTTCCGGTCC,12400
9,AGCTTGAACTTCCCAGGGGTCATTTCCTTTGGCAAG,820
10,CGCCACTGAGGAAATGAGGGAGAGGAAGCAGGTGAT,520
11,GCGCCTGCGGCTGGAAGGCACTTCCGGCGGAAGTTA,17800
12,ACAAGGCCGGATGTGTTCTGAGCCGGAAGAGGAGTG,15900
13,AGAAGCGGAAAAGGCCTGAGAGGGTCGGAAGTGGGG,1050
14,CGCGCACGCAGGAAGGAGCCATTTCCTAGAGATGGG,1120
15,GCCGGTCGCCTTCCTGAAAAAGCGGAAAAACTTAAA,595
16,CCCCGCGAGACTTCCCCCGGCGGAAAAGGCCCAGAG,916
17,AGAAGACACAGGAAGCCATCTGCTTCCTGGCTGTAT,4010
18,ATCTCTCCTTCCTGTGTCATCAGCTTCCTGACCCTT,7710
19,ACCCCCTTTCCTGTCTGACCTCTGTTTCCTAGACAG,13300
20,GGAGGCACAGGAAGCCAACAAGAGGAAGCAGGAGCA,2810
21,AGCAGGAAGCGAGCCCGGCGGCCGCGTTTTCCTGGG,1030
22,TGAAGAGTACTGTTTCCTCAGGAAATTGCCATTTTT,648
23,GCTGCAGAAGGAAACGGGACCCACATCCTGGCCCTG,1280
24,CAAGAGAGGAAGTAGAGTGACTCATTTTCCGCCCCA,1690
25,CAAGTATTTCCTCATTCTGAACAAAGGATGTCGACA,3270
